Experimental data: publication PMC6919601, “Identification of Plasmodium dipeptidyl aminopeptidase allosteric inhibitors by high throughput screening” (PLoS ONE, 2019)
The campaign covered roughly 110,000 compounds. About 230 (0.21%) showed an effect of 50% or more. The list shows a part of the results.

target: DPAP1 (Plasmodium falciparum, UniProt Q8IIJ9); assay: primary screen, percent inhibition; read by cleavage of a fluorogenic dipeptide substrate; higher = more effect of the substance; parameters: species or system P. falciparum D10 trophozoite lysates; single well
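Note: 30 min substrate incubation versus DMSO and 10 µM JCP410 controls.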

Sequence of DPAP1 (Q8IIJ9 whole entry, looked up): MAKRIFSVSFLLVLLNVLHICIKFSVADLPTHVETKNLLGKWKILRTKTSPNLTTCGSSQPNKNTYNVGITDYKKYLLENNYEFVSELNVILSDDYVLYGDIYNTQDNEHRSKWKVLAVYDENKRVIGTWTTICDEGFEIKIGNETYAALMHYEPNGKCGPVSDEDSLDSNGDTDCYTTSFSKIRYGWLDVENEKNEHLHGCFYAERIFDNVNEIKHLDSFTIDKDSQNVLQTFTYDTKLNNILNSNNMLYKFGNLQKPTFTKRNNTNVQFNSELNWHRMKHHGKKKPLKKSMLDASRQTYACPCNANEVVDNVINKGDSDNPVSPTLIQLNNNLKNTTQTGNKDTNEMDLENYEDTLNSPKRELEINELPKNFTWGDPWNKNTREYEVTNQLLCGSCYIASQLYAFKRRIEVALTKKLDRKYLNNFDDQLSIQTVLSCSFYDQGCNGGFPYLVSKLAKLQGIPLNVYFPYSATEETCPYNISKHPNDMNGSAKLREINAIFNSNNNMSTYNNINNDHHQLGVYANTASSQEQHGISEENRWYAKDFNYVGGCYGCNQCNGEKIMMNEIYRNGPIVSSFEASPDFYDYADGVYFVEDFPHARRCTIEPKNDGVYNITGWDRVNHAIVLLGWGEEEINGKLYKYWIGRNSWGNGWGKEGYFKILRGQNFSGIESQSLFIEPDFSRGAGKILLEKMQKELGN

SMILES | % Inhibition @ 10 uM [%]
NC(=O)c1sc2nc(-c3ccccc3)ccc2c1N | 3.1
O=C(c1noc2c1COc1ccccc1-2)N1CCCN(Cc2ccccc2F)C1 | 3.3
O=C(NCCc1ccccc1)c1cccc2c1-c1ccccc1C2=O | -2.63
NC(CC(=O)OC1CCCCC1)C(=O)OC1CCCCC1 (stereo not shown) | -4.21
COc1ccc(Cl)cc1C(=O)NC1CC(C)(C)NC(C)(C)C1 | -11.5
Cc1ccc(C(=O)N/C(=C/c2ccco2)C(=O)N2CCC(C)CC2)cc1 | -2.78
CCO/C(O)=C1\C(C)=NC2=C(C(=O)CC(C)(C)C2)C1c1ccc(CC)s1 (stereo not shown) | 0.345
COc1ccc2ccccc2c1CN1CCCN(C)CC1 | -3.57
O=C(CN1C(=O)c2ccccc2C1=O)NCCc1ccccc1 | -1.29
CCN(Cc1ccccc1)S(=O)(=O)c1c[nH]c(C(=O)OC)c1 | -3.76
Cc1csc(NC(=O)C2CCCN(S(=O)(=O)c3c[nH]cn3)C2)n1 (stereo not shown) | -5.58
O=C(CN(CCc1ccccc1)S(=O)(=O)c1ccc(Br)cc1)N1CCOCC1 | -5.13
Cc1ccc(-c2[nH]c(-c3ccc(F)cc3)nc2SCC(=O)NCC2CCCO2)cc1 (stereo not shown) | -1.58
O=C(Nc1ccc(Cl)cc1)N1CCc2ccccc2C1 | -0.641
COc1cccc(C(=O)/N=c2\sc(C)c(-c3ccc(F)cc3)n2C)c1 | 0.108
COc1ccc(N2C(=O)CC(N3CCN(C(=O)c4ccco4)CC3)C2=O)cc1 (stereo not shown) | -1.98
CCCCn1nc(NS(=O)(=O)c2ccccc2)c2cc3ccccc3nc21 | 2.62
O=C(Cn1ncc2c(=O)oc3ccccc3c21)NCCC1=CCCCC1 | -2.83
CCOC(=O)N1CCN(CC(O)COc2c(C)cccc2C)CC1 (stereo not shown) | -5.35
N#CCNC(=O)[C@H](CSCc1ccc(OC(F)(F)F)cc1)NC(=O)c1ccccc1 | -1.83
O=C1CC(c2cccc(Oc3ccccc3)c2)C2=C(CC(c3ccc(F)cc3)CC2=O)N1 (stereo not shown) | -2.24
COc1ccc(S(=O)(=O)N(CC(=O)Nc2ccccc2Br)c2ccccc2)cc1 | -1.66

SMILES | % Inhibition @ 10 uM [%]
CCC[C@H](NC(=O)[C@H](CS(=O)(=O)Cc1ccccc1)NC(=O)N1CCOCC1)C(=O)c1cccnn1 | -8.36
Cc1nc2ccccc2c2c1C(=O)CC(c1ccc(F)cc1)=N2 | 3.93
CC(C)C[C@H](NC(=O)N1CCN(c2ccc(O)cc2)CC1)C(=O)NCC#N | -5.2
CC1CN(C(=O)c2cccc(S(=O)(=O)N3CC(C)OC(C)C3)c2)CC(C)O1 (stereo not shown) | 4.08
COc1ccc(N(C(C)C(=O)Nc2ccc(Br)cc2)S(C)(=O)=O)cc1 (stereo not shown) | 2.08
COc1ccc(C(=N)NOC(=O)C23CC4CC(CC(C4)C2)C3)cc1OC | 1.75
Cc1nn(Cc2cccc3ccccc23)c(C)c1N | -0.222
Cc1ccc(C)c(S(=O)(=O)c2nnn3c2nc(O)c2sccc23)c1 | -3.13
Cc1c(C(=O)C(F)(F)F)c2ccccc2n1CC(=O)NC1CCCCCC1 | -1.92
CNS(=O)(=O)c1cn(CC(=O)NCc2ccccn2)cc1S(=O)(=O)NC | -7.87
O=C(O)CCCNC(=O)c1ccccc1C(=O)O | -5.51
CCc1c(C)sc(NC(=O)c2ccco2)c1C(N)=O | 14.9
O=C(c1ccccc1Cl)N1CCCCCC1 | -3.79
Cc1cccc(NC(=O)c2ccc(S(=O)(=O)N3CCCCC3C)cc2)c1 (stereo not shown) | 3.81
CC(C)Oc1ccc(C(CC(=O)O)n2cnnn2)cc1 (stereo not shown) | -7.96
CCCCNC(=O)c1ccc(SC)cc1OC | -2.88
N#CC(C#N)=Cc1cc(-c2ccccc2)nn1-c1ccccc1 | 21.2
C=CCOc1ccc(/C=C2\C(=O)N(CCC3=CCCCC3)C(C)=C2C(=O)OC)cc1OC | 1.91
CCc1noc2c1/C(=N\O)CC(c1ccccc1)C2 (stereo not shown) | -2.55
Clc1ccccc1OCCCCN1CCOCC1 | -0.351
COc1cc(C2Nc3ccc4ncccc4c3C3=C2C(=O)CCC3)cc(OC)c1O (stereo not shown) | -2.54
CCN(CC)C(=O)COc1ccc(Cl)cc1Cl | -5.46

SMILES | % Inhibition @ 10 uM [%]
COc1ccc(C2(C)CC(C)(C)Nc3ccccc32)cc1 (stereo not shown) | -6.18
CCOc1ccc(NC(=O)C23CC4CC(CC(C4)C2)C3)cc1 | 5.63
CC(=O)c1cn(C)c(=O)c2ccccc12 | 1.54
Cc1ccc(C(=O)N/C(=C\c2cc(-c3ccccc3)nn2-c2ccccc2)C(=O)NCc2ccccc2)cc1 | -8.12
CNC(=O)C1=C(C)NC(=O)NC1c1ccc(Cl)cc1 (stereo not shown) | 2.09
COc1cc(/C=C2\SC(NC(C)=O)=NC2=O)ccc1OCc1ccccc1C | 1.37
CC1(C)CC(=O)c2c(nc(SCC(N)=O)c(C#N)c2-c2ccccc2)C1 | 2.44
COc1cc(/C=C(/C#N)C(=O)NC2CCCCC2)ccc1O | 2.94
ClC(CSc1nnnn1-c1ccccc1)c1ccccc1 (stereo not shown) | -2.62
CCS(=O)(=O)N1CCCC(C(=O)NCCc2ccccc2)C1 (stereo not shown) | -7.35
O=C(NCC1CCCO1)C(Cc1ccccc1)NS(=O)(=O)c1cccc2nsnc12 (stereo not shown) | 0.317
COc1ccc(-c2c(C)[n+]([O-])c3c([n+]2[O-])CCCC3)cc1 | -5.28
Cc1c(C(=O)NC(C)CCc2ccccc2)sc2nc3n(c(=O)c12)CCCCC3 (stereo not shown) | -6.34
Cc1cccc(-c2noc(CNC(=O)COc3ccc(Br)c(C)c3)n2)c1 | -1.22
COc1c([N+](=O)[O-])cc2c(C)c(C(=O)N3CCN(C)CC3)oc2c1OC | -1.22
O=C(c1ccc(Br)cc1)n1c(=O)oc2ccccc21 | -1.06
Cc1cc(C(=O)O)c2cccc(C)c2n1 | 3.68
Brc1cccc(CNCc2cccnc2)c1 | 2.46
O=c1oc2ccc3ccccc3c2cc1-c1nc(-c2ccc(Br)cc2)cs1 | -4.31
COc1ccc(/C=N/n2c(C)nnc2-n2nc(C)cc2C)c(OC)c1 | -2.65
